The values that follow come from article PMC3313914.

Sequences of proteins named here, by UniProt entry; tags and fusion partners are left off. A change or cut given only in a name is not applied to a line headed by its entry.
UniProt P47822: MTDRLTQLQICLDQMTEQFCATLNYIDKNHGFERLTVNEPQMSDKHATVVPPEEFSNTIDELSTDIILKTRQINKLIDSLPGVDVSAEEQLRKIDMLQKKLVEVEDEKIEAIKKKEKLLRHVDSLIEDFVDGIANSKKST
UniProt P63208: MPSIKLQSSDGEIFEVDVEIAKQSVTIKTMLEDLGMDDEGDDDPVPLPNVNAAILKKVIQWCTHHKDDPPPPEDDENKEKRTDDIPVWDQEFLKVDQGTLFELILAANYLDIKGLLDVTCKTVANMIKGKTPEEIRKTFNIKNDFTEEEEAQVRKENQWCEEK
UniProt Q06213: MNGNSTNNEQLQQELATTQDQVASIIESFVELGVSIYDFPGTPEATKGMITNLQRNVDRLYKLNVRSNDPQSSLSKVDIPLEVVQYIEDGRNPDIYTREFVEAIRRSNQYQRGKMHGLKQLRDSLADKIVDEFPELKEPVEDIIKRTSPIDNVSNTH
UniProt P52286: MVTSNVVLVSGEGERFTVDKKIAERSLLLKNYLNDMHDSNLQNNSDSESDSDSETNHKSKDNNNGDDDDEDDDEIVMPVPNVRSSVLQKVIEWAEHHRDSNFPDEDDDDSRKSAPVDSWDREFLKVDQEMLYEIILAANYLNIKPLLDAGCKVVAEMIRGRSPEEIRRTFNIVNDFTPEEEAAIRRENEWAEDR

No constants are given. Whether binding was seen depends on the method and setting. Binding seen in cells or lysates may run through a third protein. Some binding calls cover weakened binding; strength is not graded here. For part of these data: Tags and fused reporters may be left off the sequences shown.

In experiment [1] the target is T1, Snf1-Cub-RUra3 (S. cerevisiae) (UniProt P06782).
T1 sequence: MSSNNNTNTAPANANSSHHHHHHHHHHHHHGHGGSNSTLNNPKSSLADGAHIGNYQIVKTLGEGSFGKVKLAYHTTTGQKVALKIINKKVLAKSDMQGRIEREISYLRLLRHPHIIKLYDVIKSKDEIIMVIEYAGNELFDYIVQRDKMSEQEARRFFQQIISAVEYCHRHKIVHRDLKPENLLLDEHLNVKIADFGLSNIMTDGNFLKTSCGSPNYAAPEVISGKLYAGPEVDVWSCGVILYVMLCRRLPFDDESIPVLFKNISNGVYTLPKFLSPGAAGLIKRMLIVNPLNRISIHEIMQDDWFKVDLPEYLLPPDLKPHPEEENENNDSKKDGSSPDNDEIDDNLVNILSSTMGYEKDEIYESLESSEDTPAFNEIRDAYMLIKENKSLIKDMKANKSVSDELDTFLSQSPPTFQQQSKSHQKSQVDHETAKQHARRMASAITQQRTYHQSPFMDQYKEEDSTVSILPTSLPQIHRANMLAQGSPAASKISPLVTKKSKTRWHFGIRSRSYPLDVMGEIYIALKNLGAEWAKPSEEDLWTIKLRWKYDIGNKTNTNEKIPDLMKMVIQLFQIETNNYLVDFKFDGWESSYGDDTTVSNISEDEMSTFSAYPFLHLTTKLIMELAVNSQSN
The experiment can be described thus: split reporter; Split-Ubiquitin assay in S. cerevisiae JD52: Snf1-Cub-RUra3 from the SNF1 locus with Nub fusions of Mediator subunits; growth on FOA and lack of growth without uracil; 28°C.

Another experiment addresses T2, hSrb7-Cub-RUra3 (human) (UniProt Q13503).
T2 sequence: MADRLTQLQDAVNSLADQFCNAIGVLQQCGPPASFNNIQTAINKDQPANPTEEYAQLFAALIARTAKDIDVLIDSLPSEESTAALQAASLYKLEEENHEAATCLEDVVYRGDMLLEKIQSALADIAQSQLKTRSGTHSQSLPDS
The experiment can be described thus: split reporter; Split-Ubiquitin screen and retest in S. cerevisiae JD52: hSrb7-Cub-RUra3 with a Nub library of human B-cell cDNAs; FOA plates with 10 µM CuSO4; interaction shown by FOA resistance.

Another experiment addresses T3, GST-hSrb7 (human) (UniProt Q13503).
T3 sequence: T2 sequence
The experiment can be described thus: pull-down; GST fusions purified from E. coli extracts with glutathione beads, incubated with S. cerevisiae extract containing Nub-HA-hSkp1; washed five times; Western blot with anti-HA; only the target purified.

For experiment [2], the target named is Srb7 fused to Cub-RUra3 (S. cerevisiae) (UniProt P47822). The experiment can be described thus: split reporter; Split-Ubiquitin assay in S. cerevisiae JD52: Srb7 fused to Cub-RUra3 and Nub-HA fused to Skp1 derivatives; lack of growth without uracil and growth on FOA.
The next experiment has as its target T4, hSrb7-Cub-RGpt2 (human) (UniProt Q13503).
T4 sequence: T2 sequence
The experiment can be described thus: split reporter; human Split-Ubiquitin system in HT1080HPRT- fibroblast cells stably expressing hSrb7-Cub-RGpt2 and Nub-hSkp1; growth in 6TG media and lack of growth in HAT media.

Experiment [3] concerns the target T5, GST-Gal80 (S. cerevisiae) (UniProt P04387).
T5 sequence: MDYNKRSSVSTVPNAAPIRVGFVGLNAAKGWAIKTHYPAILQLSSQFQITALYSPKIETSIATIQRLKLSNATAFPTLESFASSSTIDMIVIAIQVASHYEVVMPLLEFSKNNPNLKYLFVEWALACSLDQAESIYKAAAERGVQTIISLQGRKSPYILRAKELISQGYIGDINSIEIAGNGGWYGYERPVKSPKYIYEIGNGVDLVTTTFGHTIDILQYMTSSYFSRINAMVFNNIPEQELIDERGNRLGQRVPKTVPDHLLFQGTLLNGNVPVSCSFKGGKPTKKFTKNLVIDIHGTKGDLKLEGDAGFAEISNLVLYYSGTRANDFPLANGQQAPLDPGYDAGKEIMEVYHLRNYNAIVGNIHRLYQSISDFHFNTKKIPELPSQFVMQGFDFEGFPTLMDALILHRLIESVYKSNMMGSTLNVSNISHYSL
The experiment can be described thus: pull-down; GST or GST-Gal80 expressed in BY4741ΔW cells together with the HA-tagged partner; cells grown with glucose or induced with galactose for 1 h; pulled down from cell extracts with glutathione beads, 4°C, 1 h, five washes; Western blot with anti-HA. On the technique in general: A western blot detects proteins with antibodies after separation by electrophoresis.

The next experiment concerns the target GST-hSkp1 (human) (UniProt P63208). The experiment can be described thus: pull-down; GST fusions purified from E. coli extracts with glutathione beads, incubated with E. coli extract containing H6-HA-hSrb7; washed five times; Western blot with anti-HA; only the target purified.
For the next experiment, the target named is myc-tagged hSkp1 (human) (UniProt P63208). The experiment can be described thus: co-IP; lysate (PBS, freeze-thaw) of HeLa cells transfected with pCMV-myc-hSKP1; anti-myc agarose beads overnight in ice cold PBS; four washes; blot with anti-Med6.

Turning to “Nub fusion of Med10 (from UniProt Q06213 1-157)”, in experiment [1], the binding result is “binds”.

As to “Nub-HA-hSkp1 (from UniProt P63208 1-163)”, the binding entry with hSrb7-Cub-RUra3 (human) and with GST-hSrb7 (human) was “binds” throughout.

“Nub-HA-Skp1V90A,E129A (from UniProt P52286 1-194)”: the binding result in experiment [2] was “no binding”.

Take “Nub fusion of Srb7 (from UniProt P47822 1-140)”: in experiment [1], the binding entry is reported as “no binding”.

Nub-hSkp1 (from UniProt P63208 1-163): in the experiment with hSrb7-Cub-RGpt2 (human), the binding entry is “binds”.

As for “Skp1-HA3-H10 (from UniProt P52286 1-194)”, the binding result in experiment [3] was “binds”.

B1: H6-HA-hSrb7 (protein, UniProt Q13503 1-144)
chain: T2 sequence
With B1, the binding entry with GST-hSkp1 (human) is reported as “binds”.

B2: hMed6 (protein, UniProt O75586 1-246)
chain: MAAVDIRDNLLGISWVDSSWIPILNSGSVLDYFSERSNPFYDRTCNNEVVKMQRLTLEHLNQMVGIEYILLHAQEPILFIIRKQQRQSPAQVIPLADYYIIAGVIYQAPDLGSVINSRVLTAVHGIQSAFDEAMSYCRYHPSKGYWWHFKDHEEQDKVRPKAKRKEEPSSIFQRQRVDALLLDLRQKFPPKFVQLKPGEKPVPVDQTKKEAEPIPETVKPEEKETTKNVQQTVSAKGPPEKRMRLQ
In the case of B2, the binding result in the experiment with myc-tagged hSkp1 (human) was “binds”.

B3: HA3-tagged Das1 (protein, UniProt P47005 1-663)
chain: MPFQDYFQKKKAAFINRNNKSNADASALRDINDININFAAKSKNYVFPLTKLPDELMQEVFSHLPQPDRLQLCLVNKRLNKIATKLLYRRIYLNDSNVVKSDFMHLAINWTLLNLPSSLKEEESRDIANCKLKKLIETLQNNIHITEVIQWIRINWDLDSTLQRSILSILCNQGKSLQRLENVTDPACNDIISNGHFSRSNVSSFDMAPPNSLPEMVVPENYIPNLTKYLSQRISSRLSHMTLFIDPLKLFNYLYPLDIKLQIIDLKLHWRREFYNNDYFVKKIRPGNPLTKLSEVFDKRTLKILTIISWNDTLLKRETEMLKDFKEFENLEDLSLISIKQDVHILVDLFSSLTNLKRLKMDFLEEYVPEPTNPHIFLSILLACSKLQFIDLRYDGLIPQIINIQENKFQLNQQCNCTNCQIVFSDILKGKIFMFPEDYYIHDLQDIAAKDIFKMMKYLSLLPYSKACDAYPSVRTQPMNLTNFVTKMNRNLLEYRNSKSQLVPKIVNNPHQHSTVTSTSTAHMSEPEMIIIDDDDDDDEINAAIPPSSDDTAATISTDLELPHESLTKRDIIMCYHALIHHFKSIYVTFLKSFPHLRFLMLNDIPTIVMEENNERIFEPVFYHYDYKSNLYGWSKESNKNLENDSNNNNNNSDTIARIATVM
Take B3: in experiment [3], the binding entry is given as “binds”.

B4: Nub fusion of Srb6 (protein, UniProt P32570 1-121)
chain: MSNQALYEKLEQTRTILSVKLAELINMTTIADRNDDDEGSFAQENSELAVATTSVMMVNNQTMQLIKNVQDLLILTRSIKEKWLLNQIPVTEHSKVTRFDEKQIEELLDNCIETFVAEKTT
For B4, the binding entry in experiment [1] is reported as “binds”.

B5: Nub fusion of Srb11 (protein, UniProt P47821 1-323)
chain: MSGSFWTSTQRHHWQYTKASLAKERQKLWLLECQLFPQGLNIVMDSKQNGIEQSITKNIPITHRDLHYDKDYNLRIYCYFLIMKLGRRLNIRQYALATAHIYLSRFLIKASVREINLYMLVTTCVYLACKVEECPQYIRTLVSEARTLWPEFIPPDPTKVTEFEFYLLEELESYLIVHHPYQSLKQIVQVLKQPPFQITLSSDDLQNCWSLINDSYINDVHLLYPPHIIAVACLFITISIHGKPTKGSSLASAASEAIRDPKNSSSPVQIAFNRFMAESLVDLEEVMDTIQEQITLYDHWDKYHEQWIKFLLHTLYLRPASAI
Regarding B5, the binding result in experiment [1] is “binds”.

B6: Nub fusion of Med6 (protein, UniProt P38782 1-295)
chain: MNVTPLDELQWKSPEWIQVFGLRTENVLDYFAESPFFDKTSNNQVIKMQRQFSQLNDPNAAVNMTQNIMTLPDGKNGNLEEEFAYVDPARRQILFKYPMYMQLEEELMKLDGTEYVLSSVREPDFWVIRKQRRTNNSGVGSAKGPEIIPLQDYYIIGANIYQSPTIFKIVQSRLMSTSYHLNSTLESLYDLIEFQPSQGVHYKVPTDTSTTATAATNGNNAGGGSNKSSVRPTGGANMATVPSTTNVNMTVNTMGTGGQTIDNGTGRTGNGNMGITTEMLDKLMVTSIRSTPNYI
As to B6, the binding result in experiment [1] is listed as “binds”.

B7: HA3-tagged Mdm30 (protein, UniProt Q05930 1-598)
chain: MTKRRNLFMVGSSFTIDHLPPEIWLCISKLVGTSDLHNLCLINRRLYLTITSDEIWKRRCYDRWINRESLDILTGNDYDSIPVSQWYSYYLRRAKWENKIFCLLWGLTEETNPQHFREKYLHILQFRHYKLATFLHRIIKQGYIPDKRPLDLITYANYLLKNVRHKYVFPLFYPTNAAELKNLNNMASRDAEMIYLRLSAIDTSFDDLLDAREFILNGICSDLLQKYKKIEEFLKLRPVTRVSKLISISTDYLDCFTQPHDSVGQTNDRATGRELHREDFMLLRVYSREGRGYKTIILAIIQAITKRYNVDSYLARDHLVVSEPDFPDGRAFVTVNEDFQPYIFDKEDLLSVWSNNFHNAENFESTVLPALLEPISIQHLLTEFFRELLRCKPRPFEGYPNRAHGLRDMFPYGKVEVPRDVTMYFAFIYDLFDGMFESGMTSLRGQMLRDLLNYVNANNFGDLNIIIGQNALKEPNDCWSNKRDYVLLDDNNKIGYFYTDIETEDTLCALNQYEVDGKVFITTIDILGDIRVRLAEGLTPFQGDNDKLWESFSSVVPRTDWGLFFKGYDKERRRMQLNPYIEEKLSNLANDEQPLHNL
Regarding B7, in experiment [3], the binding entry was “binds”.

B8: HA3-tagged Ufo1 (protein, UniProt Q04511 1-668)
chain: MERPGLVLQDLPPEILINIFSHLDEKDLFTLQELSTHFRNLIHDEELWKNLFKSRVHTTHFPTFSQSSKFSVEYIERTRGLHHWQHNKAIRTKYTIIPTRNWDQPSIERIVFDYPRVAAYNDGTITILQLQNHKRQKKFKKLIYIPCTTPQGCSTMDFNINAAVFGRFDGRVFGKLLSNKSYLTPVMEFTGRHSAGVTAICNSESWDTSREDWSVSGSENGEIIWWCENKLVKMWKVSNRVIWKLAFFKDWTLIMDDEKLYIIHQMQELHSIDIPKDLDEQPMRVRFFKMDFGSMTLVLADLNNVYTISVNPNGNFGNLRKLEMPEQICAVEIDEKTSQREQNWQFAGDDGCYISLLTTQNTLYIINIRDLSSSGLKVQCKISFDEQVYVSQVTNLIVVVALPNVLQILNAMTGELIKTVLKTEKFPEFLKVSQDKIIMGSGNVLNYLKFVSSDSKKHHHSTKGKNTVSNKWNETLNTELQYYDEDEDLRRKRQSEISRLIDAYGGDLELSGDTDEENDIQLRIALLESQEAQARNQAEAGEPVGDDEDEQLRRALEESQLIYETQTNSSANHGNNTNDEIDEDDEEFLRAIRQSRVEDERRRHLRNHTTGRRNGPLSDDNFATYGAAESSERTSTENTIGSSVGVDASNNVDEDLQLAIALSLSEIN
For the molecule B8, in experiment [3], the binding result is given as “binds”.
